Data on 3 molecules can be found in article PMC12436663.

Amino acid sequences for entries named in this document (tags omitted).
UniProt Q08857: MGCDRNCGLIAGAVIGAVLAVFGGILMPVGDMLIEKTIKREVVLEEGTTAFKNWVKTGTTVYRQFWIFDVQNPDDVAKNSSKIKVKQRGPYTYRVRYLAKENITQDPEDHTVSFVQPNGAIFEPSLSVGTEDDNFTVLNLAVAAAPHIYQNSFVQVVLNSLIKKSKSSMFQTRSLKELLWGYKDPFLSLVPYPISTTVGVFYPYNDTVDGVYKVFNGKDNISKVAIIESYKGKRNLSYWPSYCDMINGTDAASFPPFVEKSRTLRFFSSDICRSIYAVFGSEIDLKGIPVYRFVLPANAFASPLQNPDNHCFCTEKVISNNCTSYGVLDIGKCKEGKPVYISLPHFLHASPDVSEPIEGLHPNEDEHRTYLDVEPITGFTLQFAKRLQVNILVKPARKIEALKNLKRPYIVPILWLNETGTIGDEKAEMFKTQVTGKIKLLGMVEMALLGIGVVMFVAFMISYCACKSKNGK
UniProt Q07969: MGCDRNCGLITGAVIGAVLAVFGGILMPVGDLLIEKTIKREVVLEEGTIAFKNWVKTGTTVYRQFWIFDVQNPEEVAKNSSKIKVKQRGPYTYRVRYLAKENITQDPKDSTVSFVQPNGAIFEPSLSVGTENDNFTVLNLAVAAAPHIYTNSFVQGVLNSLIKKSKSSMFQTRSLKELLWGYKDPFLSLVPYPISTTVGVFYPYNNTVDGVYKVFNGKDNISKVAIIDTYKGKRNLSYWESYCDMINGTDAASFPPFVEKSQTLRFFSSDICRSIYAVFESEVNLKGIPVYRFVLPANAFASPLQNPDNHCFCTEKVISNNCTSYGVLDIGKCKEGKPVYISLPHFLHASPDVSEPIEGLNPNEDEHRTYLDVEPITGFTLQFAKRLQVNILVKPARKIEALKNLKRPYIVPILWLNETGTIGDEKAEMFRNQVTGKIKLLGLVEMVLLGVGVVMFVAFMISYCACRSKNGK

In assay [1] the target is T1, Nutritionally regulated adipose and cardiac enriched protein (NRAC), endogenous mouse (mouse (endogenous in mouse adipose tissue)) (UniProt Q8BNX7).
T1 sequence: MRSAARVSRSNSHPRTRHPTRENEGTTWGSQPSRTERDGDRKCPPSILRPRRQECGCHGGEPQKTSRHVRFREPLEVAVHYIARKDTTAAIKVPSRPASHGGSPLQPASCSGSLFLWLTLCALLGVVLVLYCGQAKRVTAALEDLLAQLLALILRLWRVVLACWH
Nature of the assay: co-IP; NRAC immunoprecipitated from BAT, SCF and PGF lysates, western blotting for CD36 and caveolin-1; IP lysis buffer with 1% Triton X-100, 4 °C.

Assay [2] deals with T2, NRAC (1–165), full-length mouse NRAC expressed in HEK293T (mouse) (UniProt Q8BNX7).
T2 sequence: T1 sequence
As to the kind of experiment: co-IP; HEK293T cells co-transfected with NRAC constructs and CD36-mCherry; IP with the NRAC antibody, western blotting. Background: A western blot detects proteins with antibodies after separation by electrophoresis.

Assay [3] has as its target T3, NRAC 1–112 + SP (mouse NRAC lacking tm1, with the signal peptide and transmembrane domain of CD36) (mouse | not stated) (UniProt Q8BNX7).
T3 sequence: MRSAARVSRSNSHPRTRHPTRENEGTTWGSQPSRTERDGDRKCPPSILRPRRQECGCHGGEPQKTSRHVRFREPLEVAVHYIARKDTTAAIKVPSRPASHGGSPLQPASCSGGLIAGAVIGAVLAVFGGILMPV
The assay is described as above.

The target in assay [4] is T4, NRAC 1–135 (mouse NRAC, id1 and tm1) (mouse) (UniProt Q8BNX7).
T4 sequence: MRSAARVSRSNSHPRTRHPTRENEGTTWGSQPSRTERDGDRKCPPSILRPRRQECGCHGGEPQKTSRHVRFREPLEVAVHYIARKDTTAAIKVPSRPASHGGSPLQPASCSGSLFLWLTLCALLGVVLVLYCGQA
The description is as above.

For assay [5], the target named is T5, NRAC 1–144 (mouse NRAC, id1, tm1 and el) (mouse) (UniProt Q8BNX7).
T5 sequence: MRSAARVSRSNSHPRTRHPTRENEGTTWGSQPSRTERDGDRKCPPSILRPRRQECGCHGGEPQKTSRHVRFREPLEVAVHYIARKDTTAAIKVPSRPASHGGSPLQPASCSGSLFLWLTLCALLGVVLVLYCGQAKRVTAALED
The assay is described as above.

The target in assay [6] is CD36, endogenous mouse (mouse (endogenous in mouse adipose tissue and adipocytes)) (UniProt Q08857). Nature of the assay: co-IP; CD36 immunoprecipitated from lysates of wt differentiated adipocytes and of PGF, SCF and BAT of wt male mice, western blotting for caveolin-1.

These are yes or no findings as the source states them, for the method shown. Binding seen in cells or lysates may run through a third protein. Some entries that bind do so weakly or less than the wild type.

With “CD36, endogenous mouse (from UniProt Q08857 1-472) (receptor)”, in assay [1], the binding result is given as “binds”.
Take “CD36-mCherry (from UniProt Q07969 1-472) (receptor)”: the binding entry in assay [2] is on record as “binds”; in assay [3], “no binding”; in assay [4], “binds”; in assay [5], “binds”.

B1: caveolin-1, endogenous mouse (protein, UniProt P49817 1-178)
chain: MSGGKYVDSEGHLYTVPIREQGNIYKPNNKAMADEVTEKQVYDAHTKEIDLVNRDPKHLNDDVVKIDFEDVIAEPEGTHSFDGIWKASFTTFTVTKYWFYRLLSTIFGIPMALIWGIYFAILSFLHIWAVVPCIKSFLIEIQCISRVYSIYVHTFCDPLFEAIGKIFSNIRISTQKEI
As to B1, the binding entry in assay [1] and in assay [6] was “binds” each time.
